# According to PubChem BioAssay AID1347417 (National Center for Advancing Translational Sciences (NCATS), 2020):
# Among all 120,000 compounds or so, about 5,300 (4.4%) were called active. The shares of active, inactive and inconclusive entries below differ from those in the screen. Calls come from the whole dose curve; as a rule, active = well fitted inhibition curve with a large enough effect; inconclusive = small, poorly fitted or top-dose-only effect; inactive = no such curve, though single readings can be large or run the other way. Potencies beside an inconclusive call are fits to weak or partial responses and may not hold up.
# Assay: qHTS Primary assay for Inhibitors of Plasmodium falciparum Dd2 growth in vitro; note: nearly all actives have a fitted effect of over 65% in size;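 for activity, negative = inhibition: plate controls were DMSO vehicle for no effect and reference drug for full effect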
# Conditions: P. falciparum Dd2 growth, SYBR Green, 72 h; activity, negative = inhibition: at 28.9 µM (top of the series) unless noted; series mostly up to 28.9 µM
# Procedure, shortened: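 Readout: SYBR Green fluorescence, 485 nm excitation, 535 nm emission, after ~16 h lysis at 37C. Before that, Dd2-infected red cells (2.5% hematocrit) grew 72 h with compound, 29 uM top final concentration.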
# Potency is the fitted concentration of half-maximal effect; tags give direction and shape of the fitted curve.
SMILES,Potency,"activity, negative = inhibition",outcome
Cc1cccc(C(=O)N2CCC(Cc3ncc(C)n3C(C)C)C2)c1 (stereo not drawn),"inconclusive: 10 µM [inhibitor, single point]",–,–
FC(F)(F)c1ccc(CN2CCn3c(nnc3-c3cccnc3)C2)cc1,–,inactive: 102%,–
CCOc1ccc(NC(=O)c2nc(S(=O)(=O)Cc3ccccc3F)ncc2Cl)cc1,"inconclusive: 20 µM [inhibitor, partial curve, poor fit]",–,–
COCCOC1CCOC2(CCN(S(=O)(=O)Cc3ccccc3)CC2)C1 (stereo not drawn),"inconclusive: 6.31 µM [inhibitor, partial curve]",–,–
COc1ccc(-c2cc(-c3c(C)noc3C)c3cncn3c2)cc1,active: 5.01 µM,–,–
CCc1ccc(-c2nc3cc(NC(=O)c4ccc(C)c(C)c4)ccc3o2)cc1,–,inactive: -12.2%,–
COc1cccc(CC(=O)N2CCOc3ccc(CN4CCc5ccccc5C4)cc3C2)c1,"inconclusive: 7.94 µM [inhibitor, partial curve, poor fit]",–,–
CCc1ccc(CN2C[C@@H]3C(=O)N(CCOC)C(=O)[C@@H]3C2)cc1,–,inactive: 17.2%,–
CN1CC(=O)N(C2CNC2)Cc2c(NC3CCCC3)ncnc21,–,inconclusive: -111% [inhibitor],–
CC(C)CCNc1nc(Nc2ccccc2)c2cnn(C)c2n1,active: 10 µM,–,–
COc1cccc(CNC(=O)N2c3ccccc3CC2c2nc(C3CC3)no2)c1 (stereo not drawn),–,inactive: 20.8% [at 5.79 µM],–
COc1ccc(C(=O)N2CCC(Cc3nc(-c4cccnc4)n[nH]3)C2)cc1F (stereo not drawn),"inconclusive: 0.562 µM [inhibitor, full curve, poor fit]",–,–
CCS(=O)(=O)c1ncc(N(Cc2ccccc2)Cc2ccco2)c(C(=O)Nc2ccccc2C)n1,–,inactive: -15.7%,–
Cn1cccc1CN1CCCC2(C1)C(=NC1CCCC1)NC(=O)N2c1cccnc1 (stereo not drawn),"inconclusive: 5.01 µM [inhibitor, partial curve]",–,–
Cc1ccc(S(=O)(=O)N2CCCC(CCC(=O)NCc3ccccn3)C2)cc1 (stereo not drawn),–,inactive: -12.6%,–
Cc1ncsc1CN(Cc1ccccc1)C(=O)c1cn(CCC2CCCCC2)nn1,–,inactive: -18.8%,–
CCN1CC(c2nc(-c3ccc(-n4nc(C)cc4N)cc3)no2)CCC1=O (stereo not drawn),"inconclusive: 17.8 µM [inhibitor, single point]",–,–
Cc1noc([C@@H]2CN(Cc3ccncc3F)C[C@H]2CO)n1,–,inactive: 27.9%,–
COC1CCN(CC2CCCCCN2C(=O)NC2CCCC2)CC1 (stereo not drawn),"inconclusive: 3.98 µM [inhibitor, partial curve, poor fit]",–,–
Cc1nc(C2CC(O)C2)cc(N2CCC(n3c(=O)[nH]c4ccccc43)CC2)n1 (stereo not drawn),–,inactive: -12.2%,–
COCc1ccc2c(c1)c(OC(C)(C)C(=O)NCCN1CCOCC1)nn2CCC(C)C,"inconclusive: 10 µM [inhibitor, partial curve, poor fit]",–,–
COCCC(=O)N1CCC(c2noc(C3CC3)n2)C1 (stereo not drawn),–,–,inactive [at 5.79 µM]
COc1ccc(C2Cn3nnc(-c4nc(-c5ccc(OC(C)C)cc5)no4)c3CO2)cc1 (stereo not drawn),–,–,inactive

SMILES,Potency,"activity, negative = inhibition",outcome
CCc1nc2c(c(-c3ccc(Cl)cc3)n1)CN(Cc1ccc(F)cc1)CC2,"inconclusive: 5.01 µM [inhibitor, partial curve, poor fit]",–,–
O=C(NC1CCCCC1)c1ccc2c(c1)N(Cc1cccc(Cl)c1)C(=O)c1ccccc1S2(=O)=O,"inconclusive: 12.6 µM [inhibitor, single point]",–,–
Cc1ccc(CNc2cc(C)nc3nc(-c4ccc(C)cc4)nn23)cc1,"inconclusive: 17.8 µM [inhibitor, single point]",–,–
CC(C)NS(=O)(=O)c1ccc2c(c1)nc(-c1cc(C(C)(C)C)[nH]n1)n2C(C)C,"inconclusive: 17.8 µM [inhibitor, single point]",–,–
COc1cccc(S(=O)(=O)N2CCCC(CN3CCOCC3)CC2)c1 (stereo not drawn),"inconclusive: 1.58 µM [inhibitor, partial curve, poor fit]",–,–
COc1cc2c(cc1OCC1CC1)NC(=O)C21CCN(c2nccs2)CC1,"inconclusive: 1.12 µM [inhibitor, full curve, poor fit]",–,–
c1ccc(-c2cn3c(n2)CO[C@@H](CNC2CCOCC2)C3)cc1,"inconclusive: 11.2 µM [inhibitor, partial curve, poor fit]",–,–
O=c1ncn(CC2CC2)c2ccc(-c3ccc(Cl)cc3)nc12,"inconclusive: 11.2 µM [inhibitor, partial curve, poor fit]",–,–
Cc1cccc(C(=O)N2C(C(=O)N3CCOCC3)COC23CCN(C(=O)c2cccc(F)c2)CC3)c1 (stereo not drawn),–,inactive: -14.6%,–
O=C(c1ccn[nH]1)N1CC(c2ncc3c(-c4cccc(C(F)(F)F)c4)nccn23)C1,"inconclusive: 2.51 µM [inhibitor, full curve]",–,–
CC(C)(C)CN1CCCC2(CC(c3cccnc3)=NO2)C1 (stereo not drawn),"inconclusive: 22.4 µM [inhibitor, single point]",–,–
O=C(c1ccc(Cl)cc1)N1CC2(CCN(CC3CC3)C2)Cc2ccccc21 (stereo not drawn),active: 6.31 µM,–,–
Cc1noc(-c2ccc3c(c2)OCO3)c1C(=O)NCCSCc1ccccc1,–,inactive: -10.9%,–
Cc1nc(CN2CCN(C(C(=O)O)c3cc4ccccc4o3)CC2)cs1 (stereo not drawn),–,inactive: 17.1%,–
CN1[C@@H](CCC(=O)NCc2cccs2)CNC(=O)[C@@H]2[C@H]1CCN2Cc1nc2ccccc2n1C,"inconclusive: 25.1 µM [inhibitor, partial curve, poor fit]",–,–
Cc1ccc(C)c(N2CCN(C(=O)c3c(C)oc4nc(C)nc(N5CCOCC5)c34)CC2)c1,"inconclusive: 11.2 µM [inhibitor, single point]",–,–
N#CC1CCN(C(=O)c2nc(-c3cccc(C(F)(F)F)c3)c3ccccn23)CC1,–,–,inactive
CC(C)(C)c1ccc(CN2CC3(COCC2=O)CN(c2ccccc2)C3)cc1,–,inactive: -1.73% [at 44.1 µM],–
O=C(Cn1c(=O)oc2ccccc21)N1CCC2(CC1)NCCc1c2[nH]c2ccccc12,active: 8.91 µM,–,–
Cc1noc(C)c1CC(=O)N1CCC2(CC1)N(c1ccccc1)C(=O)CS2=O (stereo not drawn),–,inactive: -5.74%,–
Cc1cc(C)cc(NC(=O)CCn2cnc3ccccc3c2=O)c1,"inconclusive: 10 µM [inhibitor, single point]",–,–
O=C(NCCc1noc(C2CC2)n1)Nc1ccc(C(F)(F)F)cc1,–,inactive: -29.9%,–
COc1ccc(OCC(=O)NCc2ccc3c(c2)CCN3C(=O)c2cccc(C)c2)cc1,"inconclusive: 17.8 µM [inhibitor, single point]",–,–

SMILES,Potency,"activity, negative = inhibition",outcome
O=C1NCCCCCN(Cc2cccnc2)[C@@H]2CN(S(=O)(=O)c3ccccc3)CC[C@@H]12,–,inactive: -11%,–
Cc1oc2ccn(C)c(=O)c2c1C(=O)NCc1ccccc1F,–,–,inactive
COc1ncccc1-c1cnc2n[nH]c(-c3ccccc3)c2n1,"inconclusive: 14.1 µM [inhibitor, single point]",–,–
O=C(NC1CCN(c2cc(-c3ccc(F)cc3)[nH]n2)CC1)c1ccc(F)c(Cl)c1,–,inactive: -8.3%,–
O=C1CC(c2ccccc2)N(C(=O)CNC(=O)c2cccs2)CCCCCCN1 (stereo not drawn),"inconclusive: 15.8 µM [inhibitor, partial curve, poor fit]",–,–
COc1ccc(-c2cn(C[C@H]3C[C@@H]4CCN3C[C@@H]4C(=O)NCc3ccccc3)nn2)cc1,"inconclusive: 0.199 µM [inhibitor, full curve]",–,–
C[S+](=O)([O-])c1ccc(OCC2CN(Cc3ccccc3)C(=O)c3c(ccnc3-c3ccc(OCC(=O)O)cc3)O2)cc1 (stereo not drawn),–,inactive: 12.1%,–
Cc1nc(NCCN2CCC(O)CC2)cc(C2CC(O)C2)n1 (stereo not drawn),–,inactive: -4.16%,–
Cc1ccncc1C(=O)NCC(=O)N1CCCCCNC(=O)CC1c1ccccc1 (stereo not drawn),"inconclusive: 0.562 µM [inhibitor, full curve, poor fit]",–,–
O=C(NCC(c1ccc2c(c1)OCO2)N1CCN(c2ccccc2)CC1)c1ccc(F)c(F)c1 (stereo not drawn),"inconclusive: 14.1 µM [inhibitor, single point]",–,–
C=CCC(CC=C)(CNC(=O)C(=O)Nc1ccc(Br)cc1)c1ccc(OC)c(OC)c1,"inconclusive: 12.6 µM [inhibitor, single point]",–,–
CC1CCC2(CC1)NC(=O)N(CC(=O)Nc1ccccc1C(F)(F)F)C2=O (stereo not drawn),–,–,inactive
CCOc1ccccc1C1NC(=O)N(CC(=O)Nc2ccc(C)c(F)c2)C2=C1C(=O)OC2 (stereo not drawn),"inconclusive: 10 µM [inhibitor, single point]",–,–
CCc1cnc2c(c1SCc1cc(OC)cc(OC)c1)c(=O)n(C)c(=O)n2C,"inconclusive: 17.8 µM [inhibitor, single point]",–,–
Cc1ccc(C)c(CN2C(=O)c3ccccc3S(=O)c3ccc(C(=O)N4CCCCC4)cc32)c1 (stereo not drawn),"inconclusive: 11.2 µM [inhibitor, single point]",–,–
c1ccc(CCc2nc3nccc(-c4ccncc4)n3n2)cc1,"inconclusive: 11.2 µM [inhibitor, partial curve, poor fit]",–,–
Cc1cccc(C)c1NC(=O)Cn1cc(C(=O)C2CC2)c2ccccc21,–,inconclusive: -158% [inhibitor] [at 5.79 µM],–
Cc1nc(-c2ccccc2OC2CN(S(=O)(=O)c3c(C)noc3C)C2)no1,"inconclusive: 17.8 µM [inhibitor, single point]",–,–
O=C(c1cn2ccsc2n1)N1CC[C@@H](c2ccc3c(c2)OCO3)[C@H](O)C1,–,inactive: -13.5%,–
COc1ccc(-c2ccc(=O)n(CC(=O)Nc3cc(OC)ccc3OC)n2)cc1,"inconclusive: 17.8 µM [inhibitor, single point]",–,–
O=c1[nH]c(C2CCCN(S(=O)(=O)c3ccccc3)C2)nc2c1nnn2Cc1ccccc1Br (stereo not drawn),"inconclusive: 10 µM [inhibitor, single point]",–,–
CCOC(=O)c1ccc(NC(=O)CC(C)n2nc(C)cc2C)cc1 (stereo not drawn),"inconclusive: 14.1 µM [inhibitor, partial curve, poor fit]",–,–
